This is one part of the list. These are noisy estimates, calculated here from bound and input reads.
Target: T1, Pho4 (S. cerevisiae) (UniProt P07270)
T1 sequence: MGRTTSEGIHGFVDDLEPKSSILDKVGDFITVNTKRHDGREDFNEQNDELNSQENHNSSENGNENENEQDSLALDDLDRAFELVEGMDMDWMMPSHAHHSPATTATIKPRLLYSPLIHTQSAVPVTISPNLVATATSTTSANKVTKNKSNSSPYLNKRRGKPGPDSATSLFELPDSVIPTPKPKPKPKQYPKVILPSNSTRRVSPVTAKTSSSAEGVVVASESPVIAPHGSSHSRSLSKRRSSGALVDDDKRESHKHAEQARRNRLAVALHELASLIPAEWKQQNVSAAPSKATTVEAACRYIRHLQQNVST
Experiment: relative binding free energy (BET-seq); higher = weaker binding
Details: reference: library average

Row | Sequence | relative binding free energy [kcal/mol]
1 | TGATGCACGTGCTAGT | 0
2 | CGTAGCACGTGCGGGT | -0.18
3 | GTTTTCACGTGAAGGA | 0.47
4 | GGATGCACGTGAAAGG | 0.21
5 | TGAGCCACGTGGTGGC | -0.02
6 | TGAGACACGTGATGGG | 0.15
7 | GCGTCCACGTGATTGG | 0.49
8 | TTAATCACGTGGGGGT | -0.06
9 | TAGAACACGTGATGTG | 0.12
10 | TTCGGCACGTGATAGT | -0.03
11 | TCGGCCACGTGGGAGG | -0.14
12 | AAGGTCACGTGTGCAT | 0.21
13 | CTGGCCACGTGATGTG | 0.05
14 | TATGGCACGTGGCGAA | -0.18
15 | TGGTGCACGTGGGATA | -0.06
16 | CGGGGCACGTGATGTA | 0.07
17 | TTTCACACGTGGCGGG | -0.05
18 | GGGGCCACGTGAATTT | 0.38
19 | AAAAACACGTGGTGTT | -0.13
20 | TTGTTCACGTGCCCGT | 0.37
21 | TGTTACACGTGTGATC | 0.16
22 | AGGGTCACGTGATAAA | 0.1
23 | AACGTCACGTGGGTTT | -0.03
24 | CATAGCACGTGTGGGT | 0.03
25 | TTGGGCACGTGGTGGT | -0.06

Row | Sequence | relative binding free energy [kcal/mol]
26 | GTTAGCACGTGTGGTC | 0.05
27 | ATATTCACGTGTTGTG | 0.14
28 | AGGATCACGTGGTGAG | 0.12
29 | TCGTTCACGTGGTCTG | 0.04
30 | TTGTTCACGTGAGTAA | 0.31
31 | TCAGGCACGTGGGGGA | -0.21
32 | TGTAGCACGTGACTTT | -0.02
33 | ATTTTCACGTGCGGAG | 0.26
34 | GTAAACACGTGCGTGG | -0.09
35 | TCTTGCACGTGAGGTT | 0.16
36 | TGAGGCACGTGGTTTA | -0.1
37 | GTAATCACGTGTGGGG | 0.27
38 | GGGCCCACGTGGGAAG | -0.04
39 | GGAAGCACGTGTGCAG | -0.02
40 | TATCTCACGTGGGGGA | 0.08
41 | GTGCGCACGTGTTGAT | -0.14
42 | AAGGGCACGTGAGGGC | 0.04
43 | TTACTCACGTGGTTCT | 0.26
44 | GTGCTCACGTGCTGGA | 0.24
45 | AGTCTCACGTGACTGG | 0.37
46 | ACTGACACGTGTAGGG | 0.11
47 | GCGTGCACGTGGTTTA | -0.1
48 | TATAACACGTGGTGTG | -0.13
49 | TGGCTCACGTGAGGTT | 0.3
50 | TAGTGCACGTGACGGA | 0.21

Row | Sequence | relative binding free energy [kcal/mol]
51 | GTTAGCACGTGGTCGA | -0.08
52 | GGTGACACGTGCGGGG | 0.02
53 | TTTGGCACGTGCTTCT | -0.21
54 | TGGCGCACGTGAAGCG | 0.13
55 | TGGGACACGTGCTTGG | -0.06
56 | CGGTGCACGTGGCAGT | -0.18
57 | TTAGGCACGTGTGAAT | -0.1
58 | CGGTACACGTGGGGGA | -0.15
59 | TTAATCACGTGTATTA | 0.03
60 | ATGGTCACGTGCATTG | 0.05
61 | TTCATCACGTGTTGAG | 0.14
62 | TATGGCACGTGGCGTT | -0.26
63 | TTCGACACGTGTGTAG | 0.09
64 | TTTTACACGTGGCGGG | 0.14
65 | CGAGGCACGTGGGGTC | -0.21
66 | TATAGCACGTGGCTAG | -0.16
67 | TTCTTCACGTGTATGT | 0.24
68 | GTTAACACGTGTTGAG | -0.02
69 | CGTGTCACGTGGTGGC | -0.01
70 | ACGTACACGTGTGTTG | -0.03
71 | TCCGGCACGTGTGGGG | -0.02
72 | GACTTCACGTGTGGAG | 0.39
73 | AGTATCACGTGTAGGC | 0.08
74 | GGGGACACGTGAGTTA | 0.22
75 | TTAGTCACGTGTTTCG | 0.05

Row | Sequence | relative binding free energy [kcal/mol]
76 | TGGTTCACGTGGGTAG | 0.2
77 | GTAAGCACGTGAAAGG | 0.19
78 | GTCAGCACGTGAATGG | 0.08
79 | TGGAGCACGTGTAGTT | 0
80 | TATATCACGTGGATGA | 0.13
81 | GGTTACACGTGTCTTT | 0.2
82 | GGAAACACGTGTGGGA | -0.1
83 | ATGTACACGTGGCTTA | -0.04
84 | ATGCACACGTGAAGGG | 0.15
85 | TGAGCCACGTGGTGGG | -0.17
86 | TGATTCACGTGGAAGT | 0.31
87 | ATGTTCACGTGGCATG | 0.16
88 | AGGGTCACGTGCGTTT | 0.08
89 | GGATGCACGTGGCTGG | -0.12
90 | GAGAGCACGTGTTAGT | -0.15
91 | ATTGCCACGTGGTCGT | -0.16
92 | GCCGGCACGTGAAGGT | 0.24
93 | TTTAGCACGTGAGCTA | 0.16
94 | GTGGCCACGTGTGGGG | 0.04
95 | CGGTGCACGTGTGAAG | -0.03
96 | GTTTCCACGTGTGTGG | 0.14
97 | TTTAGCACGTGAAGGT | 0.18
98 | TGGATCACGTGGTTGC | 0.12
99 | CATGTCACGTGGATGA | 0.03
100 | AGGAGCACGTGAGGTG | 0.12

Row | Sequence | relative binding free energy [kcal/mol]
101 | TTTTACACGTGGTACG | 0.11
102 | GGATGCACGTGTTGGG | 0.05
103 | GGGGGCACGTGTCAAT | -0.06
104 | TTGCTCACGTGATTAG | 0.35
105 | AGGTTCACGTGGCTAG | 0.15
106 | TGTCACACGTGTCAGG | 0.16
107 | AGGCACACGTGGTTTG | -0.02
108 | CTAGTCACGTGTTGGA | 0.09
109 | CGGAGCACGTGTGGCG | -0.14
110 | AGGGCCACGTGCGGCG | -0.14
111 | TATGACACGTGATGAG | -0.03
112 | GTGGTCACGTGGAGTA | 0.03
113 | ATATGCACGTGTCGGT | -0.1
114 | TAGGTCACGTGGCGGC | 0.07
115 | CTAAGCACGTGGTTTT | -0.15
116 | TTGGGCACGTGGTTAC | -0.15
117 | TTGTTCACGTGATCAA | 0.42
118 | CGGGTCACGTGTTGAA | 0.08
119 | GTTGTCACGTGTAATG | 0.13
120 | TAGTACACGTGGGGTG | -0.13
121 | GTCGGCACGTGCGGGA | 0.02
122 | AATTGCACGTGTGGGA | 0.01
123 | GATTTCACGTGGAGGA | 0.38
124 | GAGATCACGTGGATGG | 0.12
125 | ACATTCACGTGTGGGT | 0.2

Row | Sequence | relative binding free energy [kcal/mol]
126 | TGGGTCACGTGCTTGA | 0.12
127 | AAGTGCACGTGTGCGT | -0.04
128 | TGCCTCACGTGGTTGG | 0.08
129 | GGTGGCACGTGGCTGA | -0.08
130 | GTCTGCACGTGTGTTT | 0.18
131 | TGGGACACGTGAGTAG | 0.19
132 | GGAGCCACGTGGAGGT | -0.03
133 | GAATTCACGTGATGTT | 0.23
134 | TGGGTCACGTGTGTCC | 0.15
135 | TTCGGCACGTGATTGG | 0.12
136 | ACGGTCACGTGTTGCA | 0.15
137 | AGGGGCACGTGAGATA | 0.19
138 | GGCCGCACGTGGCGGT | -0.07
139 | GTGGGCACGTGGATTG | 0.05
140 | GTAGTCACGTGAGGCG | 0.28
141 | CGGAACACGTGTGGGT | -0.04
142 | AGTCTCACGTGAGGGC | 0.39
143 | TAACACACGTGTGTGT | 0.05
144 | CTGGGCACGTGATGAG | 0.04
145 | TCATGCACGTGGGTTG | -0.18
146 | ATATCCACGTGTTGTG | -0.08
